Data on 43 compounds can be found in publication PMC4336329 (PLoS ONE, 2015).

The whole screen tested about 310,000 compounds, of which about 14,000 (4.5%) showed an effect of 50% or more. The effect is printed as a negative number. Some of the results follow.
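Note: peak tail current of the secondary pulse compared with the same well before compound.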

The target in the test is human ether-à-go-go-related gene (hERG) potassium channel (human, UniProt Q12809). Nature of the test: primary screen, population patch clamp on CHO cells stably expressing hERG.
Chain of human ether-à-go-go-related gene (hERG) potassium channel (Q12809 whole entry, looked up): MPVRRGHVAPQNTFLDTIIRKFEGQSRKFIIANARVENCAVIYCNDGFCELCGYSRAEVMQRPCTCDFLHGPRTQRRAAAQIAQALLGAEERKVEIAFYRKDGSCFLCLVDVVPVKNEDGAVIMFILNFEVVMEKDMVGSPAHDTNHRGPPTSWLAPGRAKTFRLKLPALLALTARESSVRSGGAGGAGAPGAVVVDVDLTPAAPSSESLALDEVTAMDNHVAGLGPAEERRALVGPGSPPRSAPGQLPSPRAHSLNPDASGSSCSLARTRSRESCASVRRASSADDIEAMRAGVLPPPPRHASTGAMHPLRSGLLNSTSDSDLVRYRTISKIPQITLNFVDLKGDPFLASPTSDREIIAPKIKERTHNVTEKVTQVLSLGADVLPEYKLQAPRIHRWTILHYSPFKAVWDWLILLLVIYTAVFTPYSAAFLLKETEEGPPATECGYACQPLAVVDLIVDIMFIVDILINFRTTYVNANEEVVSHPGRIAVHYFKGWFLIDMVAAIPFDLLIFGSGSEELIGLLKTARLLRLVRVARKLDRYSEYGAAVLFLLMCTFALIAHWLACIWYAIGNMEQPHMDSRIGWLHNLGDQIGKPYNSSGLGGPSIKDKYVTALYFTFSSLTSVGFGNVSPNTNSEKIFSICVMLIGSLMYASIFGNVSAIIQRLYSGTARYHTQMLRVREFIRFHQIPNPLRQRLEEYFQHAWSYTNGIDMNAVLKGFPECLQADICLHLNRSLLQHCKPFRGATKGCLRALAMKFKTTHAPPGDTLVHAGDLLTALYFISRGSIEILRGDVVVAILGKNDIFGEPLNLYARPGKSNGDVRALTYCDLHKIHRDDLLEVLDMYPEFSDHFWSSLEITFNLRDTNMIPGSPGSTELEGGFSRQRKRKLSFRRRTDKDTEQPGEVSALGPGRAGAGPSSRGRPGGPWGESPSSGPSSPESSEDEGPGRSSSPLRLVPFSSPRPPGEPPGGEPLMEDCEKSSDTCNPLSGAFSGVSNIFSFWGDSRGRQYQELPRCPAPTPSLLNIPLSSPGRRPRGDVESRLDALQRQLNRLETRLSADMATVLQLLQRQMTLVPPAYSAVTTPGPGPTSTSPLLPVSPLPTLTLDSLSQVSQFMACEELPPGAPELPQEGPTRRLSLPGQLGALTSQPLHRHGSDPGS
On to `CN1C(=O)c2ccccc2NC(=O)[C@]12O[C@@H]2c1cccc(O)c1`, for which the “hERG current change (%, negative = inhibition) at 10uM” value is recorded as 6.76%.
The result for `COc1ccc(CN2C(=O)c3cccnc3C2=O)cc1S(=O)(=O)NC(C)C` reads 15%; that for `CCN(CC(=O)Nc1ccc(NC(C)=O)cc1)C(=O)CN1C(=O)C2CCCCC2C1=O` (stereo not shown), 7.85%.
Regarding `O=[N+]([O-])c1ccc(/C=C/C2=NN(c3ccccc3)C(c3ccco3)C2)cc1` (stereo not shown), the “hERG current change (%, negative = inhibition) at 10uM” value amounted to 27.5%.
On to `Cc1nn(Cc2ccccc2)c(C)c1NC(=O)c1cc2nc(-c3ccco3)cc(C(F)(F)F)n2n1`, for which the “hERG current change (%, negative = inhibition) at 10uM” value was -11.1%.
The result for `Cc1cc(C)c2nc(N3CCC(C(=O)N4CCN(c5ncccn5)CC4)CC3)sc2c1` reads -0.141%; that for `COCCN1Cc2cccc(C(=O)Nc3ccc(S(=O)(=O)N4CCOCC4)cc3)c2C1=O`, 27.3%.
Take `O=C1S/C(=C/c2ccccc2F)C(=O)N1CCN=C1NS(=O)(=O)c2ccccc21`: the “hERG current change (%, negative = inhibition) at 10uM” value turned out to be 12.6%.
The result for `COc1ccc(-c2nnc(SCC(=O)Nc3ccc(C(=O)O)cc3)n2-c2ccc(Cl)cc2)cc1` reads -1.64%; that for `CN(C)S(=O)(=O)c1ccc2c(c1)C(CC(=O)O)OC2=O` (stereo not shown), 15.4%.
The result for `COC(=O)C1=C(C)NC(=O)CC1c1ccccc1` (stereo not shown) reads -6.97%; that for `CCN(CC)C(=O)COc1ccc(-c2nnc(Nc3ccc(OC)c(C(=O)NC)c3)c3ccccc23)cc1`, 16.9%; that for `CCCc1nc2ccccc2n1Cc1ccccc1OC`, -14.1%.
The value for `COCC(=O)N(Cc1ccco1)c1nnc(C2CCOC2)s1` (stereo not shown) was 9.58%; that for `CCn1cc(C(=O)N(C)Cc2ccc(OC(F)F)cc2)c(=O)c2ccc(C)nc21` was -65.1%.
For the compound `CCn1cc(C(=O)NCc2ccccc2F)c(=O)c2ccc(C)nc21`, the “hERG current change (%, negative = inhibition) at 10uM” value was 19.1%.
`O=C(NCCN1C(=O)S/C(=C\c2cccc(Cl)c2Cl)C1=O)C1=COCCO1`: the “hERG current change (%, negative = inhibition) at 10uM” value was -43.9%.
As for `CCN(CC(=O)Nc1ccc(OC)cc1)C(=O)c1oc2c(Cl)cccc2c1C`, the “hERG current change (%, negative = inhibition) at 10uM” value came to 13.5%.
`COc1ccccc1NC(=O)CSc1nnnn1-c1ccc(C)cc1`: the “hERG current change (%, negative = inhibition) at 10uM” value is recorded as -4.29%.
The value for `CCCCCN(C(=O)CCCSc1nncs1)c1c(N)n(CCCC)c(=O)[nH]c1=O` was 17.3%; that for `O=C(O)CCCC(=O)Nc1ccc(-n2ccc(C(F)(F)F)n2)cc1` was 13.9%.
The result for `N#C/C(N)=C(/N)C#N` reads 19.6%.
In the case of `OCC[C@@H]1C[C@H](O)[C@@H](O)[C@@]2(OCCc3ccccc32)O1`, the “hERG current change (%, negative = inhibition) at 10uM” value was 17.4%.
Turning to `Cc1ccc(-c2nc3ncccc3o2)cc1NC(=O)c1cccs1`, the “hERG current change (%, negative = inhibition) at 10uM” value is -6.5%.
The value for `COc1ccc(NC(=O)CC(NC(C)c2ccccc2)C(=O)O)cc1` (stereo not shown) was 13.1%; that for `N#Cc1ccc(-c2ccc(OCC(=O)Nc3cccnc3)cc2)cc1` was -0.562%; that for `CCOC(=O)N1CCN(C(=O)CN(C)S(=O)(=O)c2ccc(F)cc2)CC1` was 16.8%.
The result for `COc1ccc(N(C)S(=O)(=O)c2cccc(C(=O)Nc3ccc4c(c3)OCCO4)c2)cc1` reads -12%.
The value for `Cc1ccc(S(=O)(=O)N2CCN(C(=O)CSc3nccn3C)CC2)cc1` was 17%; that for `O=C(CSCCO)Nc1cc(C(F)(F)F)ccc1Cl` was -5.84%; that for `CCn1c(SCC(=O)Nc2nncs2)nnc1-c1ccco1` was 17.2%.
On to `O=c1[nH]cn[nH]1`, for which the “hERG current change (%, negative = inhibition) at 10uM” value was found to be 9.87%.
The value for `O=C(CCc1nc2ccccc2c(=O)[nH]1)OCc1nnc(-c2ccccc2)o1` was -2.15%; that for `CCC(=O)N1c2ccccc2NC2=C(C(=O)CC(C)(C)C2)C1c1ccc(O)c(OC)c1` (stereo not shown) was 19.5%.
`CSc1nc(NCC(C)C)c2c3c(sc2n1)CN(C)CC3`: the “hERG current change (%, negative = inhibition) at 10uM” value is -44.2%.
The value for `Cc1ccc(NC(=O)CCN2CC(C)OC(C)C2)cc1C.Cl` (stereo not shown) was 19.1%; that for `CSc1ccc(C=O)cc1` was 15.3%.
The value for `CNC(=O)c1[nH]cnc1C(=O)Nc1ccc(Cl)cc1` was 5.84%.
On to `Cc1n[nH]c(=O)c2c(NC(=O)CSc3nncn3C(C)C)oc(C)c12`, for which the “hERG current change (%, negative = inhibition) at 10uM” value was determined as 2.97%.
The value for `Cc1cc(-c2ccccc2)nc(N/N=C/c2ccccc2)n1` was -32.4%; that for `CCOc1ccc(N(CC(=O)NCCSCc2ccccc2)S(=O)(=O)c2ccccc2)cc1` was 11.2%.
In the case of `CC(=O)OCC(OC(C)=O)C(OC(C)=O)C(OC(C)=O)C(=O)Nc1ccc(C)cc1` (stereo not shown), the “hERG current change (%, negative = inhibition) at 10uM” value is -10.7%.
The value for `CCOc1cc(N2CCOCC2)c(OCC)cc1NC(=O)Cn1cnc2c(=O)n(C)c(=O)n(C)c21` was -2.33%.
